# Data from PubChem BioAssay AID1347041 (National Center for Advancing Translational Sciences (NCATS), 2019).
# Where “and” joins values, the source holds several entries; their conditions need not be identical. Equal entries are not always repeated. Out of some 480,000 compounds screened, about 740 (0.15%) were called active. This list was built around the results that the source calls inconclusive (neither active nor inactive); the mix of calls is not that of the screen. No stated cut-off is given here; in the data, active means activity change below about -30%; inconclusive means mostly about -25% to -30%; inactive means weaker than that. Some compounds were tested as several samples or in several runs, with calls that do not always agree.
# Molecular target: L-lactate dehydrogenase A chain (Homo sapiens) (UniProt P00338)
# Assay: qHTS assay for inhibitors of human lactate dehydrogenase;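 further: values are at about 110 or 230 µM; plate controls were DMSO wells for no effect and wells without enzyme for full effect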
# Settings: purified LDHA, NADH/diaphorase-resazurin fluorescence; stronger effect = lower value
# Procedure, shortened: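 Human LDH5 (2 nM) was incubated with 0.06 mM NADH and 0.2 mM pyruvate for 5 min at room temperature in Tris pH 7.4. Remaining NADH was coupled through diaphorase/resazurin, and resorufin fluorescence was read at 0 and 20 min.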
row,SMILES,activity change
1,Cc1csc(C(C#N)C(=O)CSc2ccc3c(c2)OCCCO3)n1 (configuration not stated),inconclusive: -29.5%
2,O=C(OCc1ccccc1)N1CCC2CC1c1cc(N3CCNCC3)ccc12 (configuration not stated),active: -31.2%
3,O=C(CNCC1CCCO1)Nc1ccccc1N1CCOCC1 (configuration not stated),inconclusive: -25.3%
4,COc1ccc(NC(=O)CCc2c(C)c3ccc(OC)cc3oc2=O)cc1,inconclusive: -29.7%
5,O=C(CN(CCc1ccccc1)S(=O)(=O)c1ccc(Br)cc1)NCc1ccc(Cl)cc1,inconclusive: -48.6%
6,CCCCCCCCCCCCCCCC[n+]1ccc(C(N)=O)cc1,inconclusive: -25.1%
7,CCSc1nc2n(n1)C(c1cccs1)C1=C(CC(C)(C)CC1=O)N2 (configuration not stated),inconclusive: -26.1%
8,O=C(N/N=C/c1ccc(Cl)cc1)c1cccs1,inconclusive: -27.2%
9,O=C(c1ccccc1)c1ccc(OCCOCCN2CCN(Cc3ccccc3)CC2)cc1,inconclusive: -28.2%
10,CCOC(=O)CC1(NC(=O)N2CCCCCC2c2cccs2)CCCCC1 (configuration not stated),inconclusive: -27.7%
11,c1ccc(CN2CCN(CCOCCOc3ccc4c(c3)CCC4)CC2)cc1,inconclusive: -25.5%
12,Nc1nc2nccc(-c3ccc(Cl)cc3)n2n1,inactive: -3.45%
13,CCN1CCN(CC(=O)Nc2cc(C(F)(F)F)ccc2OCCOC)CC1,inconclusive: -29.9%
14,O=[N+]([O-])c1cc(S(=O)(=O)Nc2ccc(Cl)cc2)ccc1N/N=C/c1ccccc1Cl,inconclusive: -27.8%
15,Cc1cc(C)n2nc(C(=O)N3CCCC(Nc4ccc(F)c(F)c4)C3)cc2n1 (configuration not stated),inactive: 1.1%
16,Cc1ccc(C23CC4CC(CC(C(=O)Nc5ccc(F)cc5F)(C4)C2)C3)cc1,inconclusive: -26%
17,N#Cc1cccc(NCc2cc(Br)ccc2F)c1,inactive: 14.4%
18,O=C(Nc1cc(F)ccc1F)c1cc(C2CC2)nn1-c1ccccc1,inconclusive: -25.1%
19,CCOC(=O)COc1ccc(F)cc1C(=O)c1ccn2nc(-c3ccc(OC)cc3)cc2n1,inactive: -1.48%
20,C=CCn1c(C(C)NC(=O)CC)nc2ccccc21 (configuration not stated),inconclusive: -25.1%
21,CC(=O)Nc1cccc(-c2csc(Nc3ccc(Cl)cn3)n2)c1,inactive: -0.606%
22,CCOc1cccc2cc(-c3nc(-c4ccccc4F)no3)c(=O)oc12,active: -34.5%

row,SMILES,activity change
1,CCOC(=O)N1CCC(N2CCN(S(=O)(=O)c3ccc4ccccc4c3)CC2)CC1,inconclusive: -25.1%
2,Cc1c(O)ccc2c(CN3CCCCCC3)cc(=O)oc12,inconclusive: -28.5%
3,COc1ccc(NC(=O)c2cc([N+](=O)[O-])ccc2O)cc1,active: -38.1%
4,N#Cc1ccc(Oc2c(Cl)cncc2Cl)cc1,inactive: -3.04%
5,Cc1cccc(-c2cc(C(=O)O)c3ccc(Br)cc3n2)c1,inconclusive: -28.9%
6,CCN1CCN(CC(=O)Nc2cc3c(cc2C(C)=O)OCO3)CC1,inconclusive: -26.4%
7,NC(=O)C[n+]1cccc(C(=O)Nc2ccccc2)c1,inconclusive: -29.8%
8,COc1cc(CN2CCN(Cc3ccc(C(F)(F)F)cc3)CC2)cc(OC)c1OC,inconclusive: -28.8%
9,CC(=O)Nc1ccc(S(=O)(=O)Nc2nc3ccccc3nc2Nc2ccc(N(C)C)cc2)cc1,inconclusive: -28.2%
10,O=C(OCC(=O)N(Cc1ccccc1)Cc1ccccc1)c1ccc2ccccc2n1,active: -36.6%
11,COc1cc(/C=N/Nc2ccc(C(=O)O)cc2)cc(OC)c1OC,inactive: -0.817%
12,COc1cc(O)c(C(C)=O)c(OC)c1,inactive: 1.93%
13,O=S(=O)(c1ccc(Cl)cc1)N1CCC(N2CCOCC2)CC1,inconclusive: -27.2%
14,COc1ccc(CN(C)CC(=O)Nc2cccc(S(N)(=O)=O)c2)c(OC)c1OC,inconclusive: -28.1%
15,CC(C)c1nnc(NC(=O)c2cc(=O)c3cc(Cl)cc(Cl)c3o2)s1,active: -34.7%
16,COc1ccc(C(=O)Nc2cc(C)nn2-c2nc(C)cc(C)n2)cc1,inconclusive: -27.9%
17,Cc1ccc(C(=O)Nc2ccc(S(=O)(=O)O)c3cc(S(=O)(=O)O)cc(S(=O)(=O)O)c23)cc1NC(=O)c1cccc(NC(=O)Nc2cccc(C(=O)Nc3cc(C(=O)Nc4ccc(S(=O)(=O)O)c5cc(S(=O)(=O)O)cc(S(=O)(=O)O)c45)ccc3C)c2)c1,active: -93.6%
18,CCOc1ccccc1C(=O)Nc1ccc(S(=O)(=O)Nc2onc(C)c2C)cc1,inconclusive: -26.5%
19,COc1ccc(C(=O)NC(C)c2nnc(SCc3ccc(Cl)c(Cl)c3)n2C)cc1 (configuration not stated),inconclusive: -29.8%
20,Nc1c(C(=O)OCC2CCCO2)c2nc3ccccc3nc2n1C1CCCCC1 (configuration not stated),inactive: 12.4%
21,Cn1c(=O)c2c(-c3cccc(Br)c3)n(C(C)(C)CO)cc2n(C)c1=O,inactive: -1.44%
22,Cc1ccc(C(=O)Nc2nnc(CC(=O)N/N=C/c3ccc(O)c(O)c3)s2)cc1,inconclusive: -26.4%

row,SMILES,activity change
1,CC(C)c1ccc(NC(=O)CN2C(=O)COc3ccc(S(=O)(=O)N4CCCCC4)cc32)cc1,inconclusive: -26.1%
2,CC1(C)CC(=O)C(C=NCCN2CCN(C(=O)CCl)CC2)=C(O)C1,inactive: -1.62%
3,CCCCn1c(N)c(N(CCOC)C(=O)c2ccc(-c3ccc(Cl)cc3)o2)c(=O)[nH]c1=O,inconclusive: -29.2%
4,COc1cccc(N2C(C(C)=O)=NN(c3ccccc3)C2c2ccc(N3CCOCC3)cc2)c1 (configuration not stated),inactive: 2.6%
5,CCCCc1nc2ccccc2c(NC(=O)CN2CCN(C)CC2)c1CCC,inconclusive: -28.5%
6,Cc1ccc(C)c(S(=O)(=O)N2CCN(CC(=O)N3CCc4ccccc4C3)CC2)c1,inconclusive: -27.6%
7,COc1cc(C(C)=O)ccc1OCCCN1CCC(Cc2ccccc2)CC1,inactive: -8.31%
8,CSC1=C(C#N)C(c2ccccc2C)C(C#N)=C(N)N1 (configuration not stated),active: -36.1%
9,CCC(=O)c1ccccc1OCCN1CCN(Cc2ccccc2)CC1,active: -33.9%
10,COc1ccc(C(C)NC(=O)CCOc2ccc(Cl)cc2)cc1F (configuration not stated),inconclusive: -26.9%
11,COc1ccc2[nH]c(=O)c(-c3noc(-c4cccs4)n3)cc2c1,active: -37.9%
12,CCN(CC)c1cc(C)c2ccccc2n1,inconclusive: -28%
13,O=C(O)c1ccc2c(=O)oc(-c3ccccc3)cc2c1,inconclusive: -26.8%
14,COc1cccc(NC(=O)C2CCC(CNS(=O)(=O)c3ccc4c(c3)CC(C)N4C(C)=O)CC2)c1 (configuration not stated),inactive: -1.55% and inactive: -7.21%
15,Cc1ncc(-c2ccc(S(=O)(=O)Nc3ccc(F)c(F)c3)cc2)o1,inconclusive: -29%
16,CCC(=O)Nc1cc(NC(=O)CC)cc(-c2nc3ccccc3o2)c1,inactive: -0.552%
17,C/C(=N/NC(=O)CSc1nc2ccccc2n1C)c1ccncc1,inconclusive: -28%
18,CC(=O)c1ccc(NC(=O)C2=Cc3sc4c(c3CS2)CCCC4)cc1,inconclusive: -27.3%
19,CCCCCCNc1nc2c(c(=O)[nH]c(=O)n2C)n1CCCc1ccccc1,inconclusive: -26.5%
20,COC(=O)c1ccc(CNC(=O)c2cccc(NC(C)=O)c2)cc1,inconclusive: -28.7%
21,CCCCN(C(C)=O)c1ccc2c(c1)C1CC2CCN1Cc1ccccc1 (configuration not stated),inconclusive: -28.4%
22,COc1cccc(S(=O)(=O)N(C)C[C@H]2Oc3ncc(Br)cc3C(=O)N([C@@H](C)CO)C[C@@H]2C)c1,inconclusive: -29.2%

row,SMILES,activity change
1,COc1ccccc1CNC(=O)CCCCn1c(=O)c2ccccc2n(CC(=O)Nc2cccc(Cl)c2)c1=O,inactive: -5.81%
2,CCN(C(=O)c1cccc(C(F)(F)F)c1)C1CC1,inactive: -1.51%
3,O=C(O)c1ccc(Oc2nc3ccccc3s2)cc1,inconclusive: -27.5%
4,CCCC(=O)Nc1ccc2c(c1)C(=O)N(CCC(=O)O)C2=O,inactive: -5.1%
5,CC1CCc2c(sc(NC(=O)c3cccs3)c2C(=O)O)C1 (configuration not stated),active: -39.6%
6,CN(C(=O)c1cc2cccc([N+](=O)[O-])c2[nH]1)C1CCCCCC1,inactive: 0.0113%
7,CSc1nn(Cc2cccc(F)c2)c(N(C(C)=O)C(C)=O)c1S(=O)(=O)c1ccccc1,active: -31.6%
8,O=C(NC1CCCC1)c1cc(-c2cccs2)on1,active: -38.7%
9,CC(=O)NCc1ccc2[nH]c(C)cc2c1,inactive: 4.38%
10,CCCCC#Cc1ccc(C(=O)NNC(=O)Nc2ccccc2)o1,active: -39.2%
11,CCc1cc(CC)n(-c2nc3c(c(=O)n(CCOC)c(=O)n3C)n2C)n1,inactive: -4.4%
12,CNC(=O)C1CCC(Cn2c(=O)c3sccc3n(CC(=O)Nc3cccc(OC)c3)c2=O)CC1 (configuration not stated),inactive: 1.8%
13,Nc1ccc(-c2cc(C(=O)O)c3ccccc3n2)cc1,inconclusive: -26.1%
14,Cc1cc(NC(=O)CN2CCC(C)CC2)no1,inconclusive: -28.8%
15,COc1cc(/C=C2\C(=O)ON=C2c2ccccc2)cc(OC)c1OC,active: -35.5%
16,Cc1cc(C)n(-c2ccc(C(=O)OCC(=O)NC3CCS(=O)(=O)C3)cc2)n1 (configuration not stated),active: -30.4%
17,CCN(CC)CCCN=C1N[C@@H](c2cccc(C(F)(F)F)c2)C(C(=O)OC)=C(C)N1CC,inconclusive: -27.9%
18,Cc1nc(NCc2ccco2)c2c(C)c(C)sc2n1,inconclusive: -26.2%
19,O=C(c1cn[nH]c1-c1ccc(F)cc1)N1CCCCCC1,inconclusive: -26.2%
20,Cc1cc(SCC(=O)NCCC#N)nc2c(C)cccc12,inconclusive: -26.8%
21,O=C(CSc1ncnc2c1cnn2-c1ccccc1)NC(=O)NC1CCCC1,inconclusive: -27.9%
